Measured values: patent US4725577A, “Biologically active lysine containing octapeptides” (Administrators of the Tulane Educational Fund, priority 1986, dated 1988)
Not every detail of the peptide structures is certain; ends, links or a residue may be inferred. Positions of bridges follow the written chain, without caps; N, C: chain ends. Non-standard residues stand in square brackets, D forms with d. Residues, ends and D or L forms follow the SMILES beside them. *: point of attachment. For = O=C*

Tests used:
GH Release = assay: in vivo growth hormone bioassay in pentobarbital-anesthetized male rats, s.c. injection, plasma GH by RIA; design: species or system rat; conditions: for INHIBITION POTENCY GH in vivo: Table C, relative potency, SS-14 = 100, based on 4-point assays
Description: The in vivo growth hormone bioassay utilized is as follows:
Male Charles River CD rats (200-300 g.) with free access to food and water were anesthetized with sodium pentobarbital (60 mg.kg intraperitoneally). Thirty minutes later saline or octapeptide is injected subcutaneously and blood samples are drawn from the jugular vein 15 minutes after subcutaneous injection. The plasma is separated and assayed for growth hormone by RIA as described above. This in vivo bioassay is a modification of the methods used by Schally, et al., "Hypothalamic Peptide Hormones: Basic and Clinical Studies", "Hormonal Proteins and Peptides", C. H. Li, ed. Academic Press, N.Y. 7: 1-54, 1978; Meyers, C. A., Murphy, W. A., Redding T. W., Coy, D. H. and Schally, A. V., Proc. Natl. Acad. Sci., USA 77: 6171, 1980; Murphy, W. A., Meyers, C. A. and Coy, D. H., Endoc. 109: 491, (1981) as well as Veber et al., Pro. Natl. Acad. Sci., USA 75: 2636-2640 (1978). For some analogs, doses as low as 0.02 μg/100 g. or even 0.005 μg/ 100 g. are active. The potency of the octapeptides of this invention relative to somatostatin is illustrated in Tables A, B and C. Single dose assays are shown in Table A and 4 point assays at 2 dose levels in Tables B and C.

[1] = tested on: CPZ and Morphine stimulated GH secretion; assay: potency #3, time course of CPZ and Morphine stimulated GH secretion; format: in vivo
Description: *Based on time course of CPZ and Morphine stimulated GH secretion.

insulin release = assay: inhibition of insulin release in vivo in fasted male rats, i.v. injection, portal plasma insulin by RIA; design: species or system rat; conditions: Table C; relative potency, SS-14 = 100; based on 4-point assays
Description: The octapeptides of the present invention are also compared to synthetic somatostatin for their ability to inhibit the release of insulin and glucagon in vivo in male rats (CD strain, Charles River) weighing 250-300 g. The rats are kept in controlled temperature (24° C.) and light (0500-1900 h) conditions for 1 week before the assay. Rats are fasted 27-30 hours with free access to water then anesthetized with Nembutal (6 mg/100 g. intraperitoneally). After 30 minutes, saline or test peptide is injected into the jugular vein and blood is collected 5 minutes later from the hepatic portal vein then transferred into chilled tubes containing EDTA (2.5 mg/ml.) and Trasylol (500 K.I.U./ml.). Plasma is separated and stored at -20° C. until assayed for insulin and glucagon. Plasma insulin is determined by double antibody radioimmunoassay using a kit from Cambridge Medical Diagnostics.

[2] = Potency assay #2, 0.01 μg/100 g B.W.
[3] = Potency assay #2, 0.04 μg/100 g B.W.

## CC(C)[C@H](NC(=O)[C@H](CCCCN)NC(=O)[C@@H](Cc1c[nH]c2ccccc12)NC(=O)[C@H](Cc1ccc(O)cc1)NC(=O)[C@H](CS)NC(=O)[C@H](N)Cc1ccccc1)C(=O)N[C@@H](CS)C(=O)N[C@@H](C)C(N)=O [RC-138-2H, D-PheCysTyrD-TrpLysValCysAlaNH2] (H-[dF]CY[dW]KVCA-NH2)
GH Release
  INHIBITION POTENCY GH in vivo: 1570

## C[C@@H](O)[C@H](NC(=O)[C@@H]1CSSC[C@H](NC(=O)[C@H](N)Cc2c[nH]c3ccccc23)C(=O)N[C@@H](Cc2ccccc2)C(=O)N[C@H](Cc2c[nH]c3ccccc23)C(=O)N[C@@H](CCCCN)C(=O)N[C@@H]([C@@H](C)O)C(=O)N1)C(N)=O [RC-98-I] (H-[dW]CF[dW]KTCT-NH2; disulfide 2-7)
GH Release; [2]
  GH Level 15': 85 ± 16 ng/mL
  GH Level 30': 72 ± 8 ng/mL
  GH Level 60': 182 ± 25 ng/mL
GH Release; [3]
  GH Level 15': 52 ± 4 ng/mL
  GH Level 30': 38 ± 3 ng/mL
  GH Level 60': 100 ± 26 ng/mL
GH Release; Potency assay #2, limits (2864.7-29159.5)
  POTENCY % 15' vs. SS-14: 9139.65%
GH Release; Potency assay #2, limits (3883.28-39524.2)
  POTENCY % 30' vs. SS-14: 12388.8%
[1]; Potency #3, injected dose 0.1
  GH-RH LEVEL: 0.4340
[1]; based on time course of CPZ and Morphine stimulated GH secretion
  Potency vs. SS14: 84.1 times vs. SS14

## CC(C)[C@@H]1NC(=O)[C@H](CCCCN)NC(=O)[C@@H](Cc2c[nH]c3ccccc23)NC(=O)[C@H](Cc2ccc(O)cc2)NC(=O)[C@@H](NC(=O)[C@H](N)Cc2ccccc2)CSSC[C@@H](C(=O)N[C@@H](Cc2cn(C=O)c3ccccc23)C(N)=O)NC1=O [RC-122] (H-[dF]CY[dW]KVCW(For)-NH2; disulfide 2-7)
GH Release
  INHIBITION POTENCY GH in vivo: 4980

## C[C@@H](O)[C@H](NC(=O)[C@H](CS)NC(=O)[C@@H](NC(=O)[C@H](CCCCN)NC(=O)[C@@H](Cc1c[nH]c2ccccc12)NC(=O)[C@H](Cc1ccccc1)NC(=O)[C@H](CS)NC(=O)[C@H](N)Cc1c[nH]c2ccccc12)[C@@H](C)O)C(N)=O [RC-98.I.2H, D-Trp-Cys-Phe-D-Trp-Lys-Thr-Cys-Thr-NH2] (H-[dW]CF[dW]KTCT-NH2)
GH Release; Potency assay #1 (89th experiment)
  Potency vs. SS14: 92.6 times vs. SS14
GH Release; Potency assay #1, 0.02 μg/100 g B.W., control 116 ± 10
  GH Level 15': 50 ± 10 ng/mL
GH Release; Potency assay #1, 0.08 μg/100 g B.W., control 116 ± 10
  GH Level 15': 28 ± 4 ng/mL

## CC(C)[C@H](NC(=O)[C@H](CCCCN)NC(=O)[C@@H](Cc1c[nH]c2ccccc12)NC(=O)[C@H](Cc1ccc(O)cc1)NC(=O)[C@H](CS)NC(=O)[C@H](N)Cc1ccc(Cl)cc1)C(=O)N[C@@H](CS)C(=O)N[C@H](C(N)=O)[C@@H](C)O [RC-88-II-2H, p-ClD-PheCysTyrD-TrpLysValCysThrNH2]
Insulin release
  INHIBITION POTENCY INSULIN in vivo: 1860
GH Release
  INHIBITION POTENCY GH in vivo: 3020

## CC(C)[C@@H]1NC(=O)[C@H](CCCCN)NC(=O)[C@H](Cc2c[nH]c3ccccc23)NC(=O)[C@H](Cc2ccc(O)cc2)NC(=O)[C@@H](NC(=O)[C@H](N)Cc2ccccc2)CSSC[C@@H](C(=O)N[C@H](C(N)=O)[C@@H](C)O)NC1=O [RC-159-II]
GH Release
  INHIBITION POTENCY GH in vivo: 2380

## CC(C)[C@H](NC(=O)[C@H](CCCCN)NC(=O)[C@@H](Cc1c[nH]c2ccccc12)NC(=O)[C@H](Cc1ccc(O)cc1)NC(=O)[C@H](CS)NC(=O)[C@H](N)Cc1ccccc1)C(=O)N[C@@H](CS)C(=O)N[C@@H](CO)C(N)=O [RC-114-2H, D-PheCysTyrD-TrpLysValCysSerNH2] (H-[dF]CY[dW]KVCS-NH2)
Insulin release
  INHIBITION POTENCY INSULIN in vivo: 440
GH Release; Table A single dose assay, 0.05 μg/100 g B.W. s.c., 15 min after injection, saline control 754 ± 155
  GH-Level mean ± SEM: 55 ± 10 ng/mL
GH Release; Table B four-point assay in rats
  Potency vs. SS14 (GH-release inhibition): 95.8 times vs. SS14
GH Release; Table B four-point assay, 0.02 μg/100 g B.W., saline control 277 ± 166
  GH-Level mean ± SEM: 44 ± 11 ng/mL
GH Release; Table B four-point assay, 0.08 μg/100 g B.W., saline control 277 ± 166
  GH-Level mean ± SEM: 34 ± 9 ng/mL
GH Release
  INHIBITION POTENCY GH in vivo: 9580
